# Data published in article PMC4336329 (PLoS ONE, 2015).
# The whole screen tested about 310,000 compounds, of which about 2,200 (0.71%) showed an effect of 50% or more. Effects have a minus sign here. The list shows a part of the results.
# Target: human ether-à-go-go-related gene (hERG) potassium channel (human, UniProt Q12809)
# Test: primary screen, population patch clamp on CHO cells stably expressing hERG
# Sequence of human ether-à-go-go-related gene (hERG) potassium channel (Q12809 whole entry, looked up): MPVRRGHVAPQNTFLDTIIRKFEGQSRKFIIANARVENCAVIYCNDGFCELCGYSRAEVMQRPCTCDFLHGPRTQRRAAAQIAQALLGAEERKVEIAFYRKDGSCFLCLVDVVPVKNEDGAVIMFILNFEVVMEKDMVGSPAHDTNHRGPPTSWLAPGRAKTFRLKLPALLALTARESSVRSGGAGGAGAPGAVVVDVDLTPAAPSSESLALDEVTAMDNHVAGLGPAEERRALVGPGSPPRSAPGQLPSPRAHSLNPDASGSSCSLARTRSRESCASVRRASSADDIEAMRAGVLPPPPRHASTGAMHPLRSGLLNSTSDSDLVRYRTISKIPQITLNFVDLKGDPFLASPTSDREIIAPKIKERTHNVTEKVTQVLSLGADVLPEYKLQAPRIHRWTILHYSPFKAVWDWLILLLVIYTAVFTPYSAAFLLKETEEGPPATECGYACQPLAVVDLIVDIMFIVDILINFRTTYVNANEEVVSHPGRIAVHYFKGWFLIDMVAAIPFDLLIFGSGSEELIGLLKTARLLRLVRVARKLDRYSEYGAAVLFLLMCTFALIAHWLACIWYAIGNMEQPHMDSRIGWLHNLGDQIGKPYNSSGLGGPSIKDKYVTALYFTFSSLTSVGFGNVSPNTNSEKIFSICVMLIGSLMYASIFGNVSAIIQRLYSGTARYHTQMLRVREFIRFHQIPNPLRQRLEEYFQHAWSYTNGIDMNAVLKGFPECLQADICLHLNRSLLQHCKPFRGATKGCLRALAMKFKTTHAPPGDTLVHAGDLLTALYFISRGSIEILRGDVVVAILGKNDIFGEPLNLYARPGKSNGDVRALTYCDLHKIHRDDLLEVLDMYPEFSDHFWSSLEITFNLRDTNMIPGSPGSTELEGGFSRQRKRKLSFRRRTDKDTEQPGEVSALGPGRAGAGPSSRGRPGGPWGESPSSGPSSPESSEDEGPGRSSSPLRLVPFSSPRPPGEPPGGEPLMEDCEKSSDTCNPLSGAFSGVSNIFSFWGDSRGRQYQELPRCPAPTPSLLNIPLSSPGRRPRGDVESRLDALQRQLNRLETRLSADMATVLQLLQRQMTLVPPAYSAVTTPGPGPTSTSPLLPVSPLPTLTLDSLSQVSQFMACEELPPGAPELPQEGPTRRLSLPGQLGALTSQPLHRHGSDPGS
row,Compound,"hERG current change (%, negative = inhibition) at 1uM"
1,CCCSc1cc(N2CCN(C)CC2)nc(-c2ccc(OC)cc2)n1.Cl,6.13%
2,OC1OC[C@@H](O)[C@H](O)[C@H]1O (stereo partly shown),20.9%
3,O=S1(=O)N=C(Oc2ccccc2)c2ccccc21,5.47%
4,COc1ccc2nc(SCC(=O)NC3CC3)c(C#N)cc2c1,13.2%
5,O=C(CN1CCN(S(=O)(=O)c2ccc(Br)cc2)CC1)Nc1ccccc1C(=O)c1ccccc1,6.46%
6,CCOc1ccc(S(=O)(=O)NCCC(=O)NC(C)CCc2ccccc2)cc1 (stereo not shown),12.2%
7,O=C1Nc2ccccc2C1=Nc1cccc([N+](=O)[O-])c1,13.6%
8,Nc1cc(=O)[nH]c(SCC(=O)Nc2ccc(S(=O)(=O)N3CCOCC3)cc2)n1,-5.06%
9,O=C(CSc1nnc(NC(=O)c2ccco2)s1)Nc1ccccc1F,11%
10,CC1(C)C2CCC1(C)C(NCC(O)COc1ccc(C#N)cc1)C2.O=C(O)C(=O)O (stereo not shown),-16.1%
11,Cc1cccc(N2CC(C(=O)Nc3nnc(SCC(=O)N4CCOCC4)s3)CC2=O)c1 (stereo not shown),10.1%
12,C=CCOc1cccc(C(=O)Nc2ncn[nH]2)c1,12.9%
13,CCC(C)C(NC(=O)C1CCC(C)CC1)C(=O)NCCCN1CCCCC1CC (stereo not shown),5.32%
14,Cc1cc(C)n(-c2nc3ccccc3nc2N2CCN(S(=O)(=O)c3ccc4ccccc4c3)CC2)n1,-1.48%
15,COc1cccc(CNC(=O)CN2C(=O)CSc3ccc(S(=O)(=O)N4CCCC4)cc32)c1,4.06%
16,CCOC(=O)C1(Cc2cccc(F)c2)CCN(C(=O)c2cscn2)CC1,8.76%
17,Cc1nn(-c2ccccc2)c(N2CCCC2)c1/C=C1\N=C(c2ccc(OC(C)C)cc2)OC1=O,9.93%
18,Cn1c(=O)n(C)c2cc(/C=N/NC(=O)c3cc4cc(Br)ccc4o3)ccc21,-0.404%
19,CCNc1nc(NC(C)C)nc(SCCOC(=O)c2ccccc2)n1,1.57%
20,COc1ccc2c(c1OC)C(=O)OC2C1c2c(cc3c(c2OC)OCO3)CCN1C.Cl.O (stereo not shown),1.9%
21,CCOC(=O)c1cc(NC(=O)N(CC)C2CCCCC2)c(C)nc1C,-0.96%
22,Cn1c(Cn2cnc3ccccc32)nnc1SCC(=O)CC(=O)Nc1ccccc1,7.33%

row,Compound,"hERG current change (%, negative = inhibition) at 1uM"
1,O=C1c2ccccc2C(O)N1Cc1ccccc1 (stereo not shown),8.4%
2,COc1cccc(OCCOCC(O)CN2CCN(Cc3ccc(Cl)cc3)CC2)c1.Cl (stereo not shown),-37.9%
3,COCCNc1nc(=S)[nH]c2cc(OC)c(OC)cc12,0.436%
4,COc1ccc(/C=N/Nc2nc(C)cc(-c3ccccc3)n2)c(OC)c1,9.88%
5,CCN(CC(=O)Nc1c(F)cccc1F)C(=O)c1ccc(OCc2c(C)noc2C)cc1,4.95%
6,C/C(CCc1ccccc1)=N\NC(=O)CC(=O)NCCc1ccccc1,18.5%
7,O=C(NCc1ccccn1)c1ccccc1OCc1ccc(Cl)cc1Cl,2.83%
8,CCC(C)c1ccc(NC(=S)NCCn2cc(Cl)cn2)cc1 (stereo not shown),4.45%
9,C/C(=N\N1CCN(c2ccccc2)CC1)c1cccs1,6.76%
10,CC(=O)Oc1ccc(C(=O)[C@H]2[C@H]3C(=O)N(c4cccc5ccccc45)C(=O)[C@H]3[C@@H]3C=CC=NN32)cc1,15.6%
11,O=C(Nc1c(C(=O)N2CCC(N3CCCCC3)CC2)oc2ccccc12)c1ccc(F)cc1,-47.7%
12,Cc1ccc(NCc2nnc(SCC(N)=O)n2CC2CCCO2)c(C)c1 (stereo not shown),17.7%
13,CC1(C)CC(NC(=O)c2cc(COc3cccc(C(F)(F)F)c3)on2)CCO1 (stereo not shown),8.46%
14,COc1ccc(/C=N/OCC(=O)NCC(C)C)c(OC)c1,4.4%
15,Cc1nc2ccccn2c1-c1csc(NCc2ccco2)n1,-45.5%
16,COc1ccc(C(=O)Nc2ccccc2C(=O)NCC2CCCO2)cc1 (stereo not shown),6.31%
17,Cc1nc2ccccc2nc(C)c1=NOCc1cccc(Cl)c1,6.58%
18,CCOc1ccc(C(=S)NC2CCCCC2)cc1OCC,11.5%
19,CCOC(=O)C1=NN(c2cccc(Cl)c2)C2=NC(C)=C(C(=O)OC)C(c3cccs3)N12 (stereo not shown),6.72%
20,COc1ccc(C)c2sc(NC(=O)C3=COCCO3)nc12,11.8%
21,O=C(Nc1ccc2c(c1)OCCO2)c1c(F)cccc1F,8.77%
22,COc1ccccc1Nc1nc(C2(C)CCC(=O)O2)cs1 (stereo not shown),-0.499%

row,Compound,"hERG current change (%, negative = inhibition) at 1uM"
1,O=C(Cc1nc2ccccc2[nH]1)c1ccc([N+](=O)[O-])cc1,7.9%
2,O=c1[nH]c2ccccc2c(O)c1-c1cc2ccccc2oc1=O,11.5%
3,CCCCN(Cc1ccccc1)C1CCN(CCc2ccccc2)CC1,-13.4%
4,CCOc1cccc(NC(=O)C2CCCN(S(=O)(=O)c3ccc(OC)cc3)C2)c1 (stereo not shown),3.07%
5,COc1ccccc1CCNC(=O)C(=O)NCC1OCCCN1S(=O)(=O)c1ccc(F)cc1C (stereo not shown),14.9%
6,CC(=O)c1c(C(C)=O)c(C)n(-c2ccc(N)cc2)c1C,5.42%
7,CS(=O)(=O)Nc1ccc(C(=O)NCCSC2CCCCC2)cc1,-8.88%
8,O=C(/C=C/c1ccc2c(c1)OCO2)Nc1nc(-c2ccc(F)cc2)cs1,6.95%
9,Cc1ccc(S(=O)(=O)CC2CSc3nc4ccccc4n32)cc1 (stereo not shown),-0.204%
10,CC(C)C(NC(=O)C1CCCCC1)C(=O)N1CCN(c2ccc(F)cc2)CC1 (stereo not shown),-32.1%
11,Clc1ccc(OCCCNCc2ccccc2)c(Br)c1.O=C(O)C(=O)O,-26.7%
12,Cn1cnc([N+](=O)[O-])c1Oc1ccc2ccccc2c1,15.7%
13,COc1ccccc1CN(C(=O)c1ccco1)C(C(=O)NC1CCCC1)c1ccncc1 (stereo not shown),12.4%
14,Cc1ccc(C2(C)NC(=O)N(CC(=O)Nc3c(C)n(C)n(-c4ccccc4)c3=O)C2=O)cc1 (stereo not shown),14.4%
15,CC(C)CC(=O)N1CCN(C(=O)CCC2CCCC2)CC1,5.45%
16,Cc1csc(NC(=O)CN2C(=O)c3ccccc3S2(=O)=O)n1,6.66%
17,Cc1cccc(OCC(=O)NC2CCCCCC2)c1C,10.5%
18,CN(C)C(=O)C1(c2ccccc2)CCN(S(=O)(=O)c2ccccc2)CC1,11.9%
19,Cc1c(Cl)cnc(NC(=O)COC(=O)c2cccs2)c1Cl,9.84%
20,O=C(O)/C=C/C(=O)NCCC1=CCCCC1,12.9%
21,C=C(C(=O)Nc1ccccc1)c1ccc(C)cc1,2.84%
22,CC(C)Cn1c(N)c(C(=O)COC(=O)c2ccccc2Cl)c(=O)n(C)c1=O,-0.862%

row,Compound,"hERG current change (%, negative = inhibition) at 1uM"
1,Cc1ccc(C(C)C)c(Oc2nnnn2-c2ccccc2)c1,10.5%
2,C[C@]12CC(=O)CC1CCC1C2CC[C@@]2(C)C1CC[C@@H]2O (stereo partly shown),9.3%
3,Cc1nc2scc(-c3ccccc3)c2c(=O)o1,-8.18%
4,CN(CC(=O)Nc1ccc(Cl)cc1)S(=O)(=O)c1ccc2c(c1)n(C)c(=O)c(=O)n2C,14%
5,COc1ccc(S(=O)(=O)NCCC(=O)OCC(=O)c2ccc[nH]2)cc1[N+](=O)[O-],-0.398%
6,CCOC(=O)c1c(NC(=O)c2ccncc2)sc(C)c1C,9.53%
7,CCOP(=O)(OCC)C(Nc1ccccc1)c1ccco1 (stereo not shown),11.5%
8,CC(=O)c1cccc(NC(=O)N2C3CCC2CC(O)(c2cccnc2)C3)c1 (stereo not shown),6.97%
9,Cc1cccc(N2CCN(c3nnnn3-c3ccccc3)CC2C)c1 (stereo not shown),6%
10,O=C(CSc1cc(Cl)ccc1Cl)NCC1CCCO1 (stereo not shown),-16.6%
11,CCOC(=O)c1nnn(-c2nonc2N)c1COc1cc(C)c(Cl)c(C)c1,10.2%
12,CCc1nn(CC(=O)N2CCC(C)CC2)c(=O)c2cccn12,12.3%
13,COC(=O)CC1(C(=O)OC)Oc2ccccc2C(=O)N1c1ccc(F)cc1F (stereo not shown),10.2%
14,COCc1cc(CNC(=O)C2CCC(=O)N(Cc3ccccc3OC)C2)[nH]n1 (stereo not shown),11.8%
15,CCOc1cc(NCCN2CCOCC2)c([N+](=O)[O-])cc1OCC,3.83%
16,O=C(N/N=C\c1ccc(CNS(=O)(=O)c2ccccc2)o1)C(=O)Nc1ccc(F)cc1,-6.45%
17,O=C(Oc1ccccc1C(=O)Oc1ccccc1)c1cccnc1,7.66%
18,C=C1CCC[C@]2(C)C[C@H]3OC(=O)C(CNCC(OC)OC)[C@H]3CC12 (stereo partly shown),18.4%
19,CCCCCCCC(=O)Nc1cc(C(=O)NCCC)ccc1N1CCC2(CC1)CC(c1ccccc1)=NO2,0.0883%
20,COc1cc(NC(=O)CSc2cc(C)c3cc(C)cc(C)c3n2)c(C(=O)O)cc1OC,11.5%
21,CCC(=O)c1cn(Cc2ccc(C#N)cc2)c2ccccc12,-9.44%
22,C=CCN(c1ccc(C(=O)NCCc2ccccc2)cc1)S(C)(=O)=O,-0.77%
